A word on the % Inhibition: it is the relative decrease from the control value, in per cent.

The values that follow come from ChEMBL document CHEMBL4888484, “Replenishing the malaria drug discovery pipeline: Screening and hit evaluation of the MMV Hit Generation Library 1 (HGL1) against asexual blood stage Plasmodium falciparum ,using a nano luciferase reporter read-out” (2022).

Out of some 150,000 compounds screened, about 540 (0.36%) showed an effect of 50% or more. This is one part of the list.

The test system of this assay is Plasmodium falciparum. As to the kind of experiment: Primary screen in NF54 nanoGlo assay, in single point, at 2uM, 72h; a lower Z score goes with more inhibition. The note with it: timepoint 72 hour. The class given is functional, Erythrocyte.
`Cc1cc(C(=O)N2CCOCC2)c(C)n1C(C)C`: the “% Inhibition” value was determined as 5% and the Z score is given as -0.74.

In the case of `COCC1(CNC(=O)CCCn2cccn2)CCC1`, the “% Inhibition” value is listed as -5% and the Z score was 0.97.

As to `Cc1cc(C)n(C(=O)CN2N=C(C(=O)Nc3ccccc3)CCC2=O)n1`, the “% Inhibition” value is -9% and the Z score was found to be 1.11.

In the case of `Cc1noc(CCNC(=O)N2CC3CCCCC32c2ccccc2)n1` (stereo not drawn), the “% Inhibition” value is recorded as -7% and the Z score is given as 0.7.

As for `CN(C)[C@H]1CN(C(=O)[C@H]2CC[C@H](C)CC2)C[C@@H]1O`, the “% Inhibition” value is reported as -18% and the Z score was found to be 2.31.

Regarding `C[C@@H](CNC(=O)COc1ccsn1)COCc1ccccc1`, the “% Inhibition” value is on record as -11% and the Z score is given as 2.24.

Take `COCC(=O)N1CCN(C)C[C@H]1C(=O)NCCc1ccc(C)o1`: the “% Inhibition” value is recorded as -2% and the Z score was 0.42.

In the case of `COc1ccc(NC(C)=O)cc1NC(=O)N[C@@H](C)c1n[nH]c(C)n1`, the “% Inhibition” value is listed as -6% and the Z score is listed as 0.63.

Consider `Cc1ccc([C@H](C)NCCCN2CCN(C(C)C)CC2)cc1F`, for which the “% Inhibition” value is on record as -7% and the Z score amounted to 1.11.

On to `C[C@@](O)(CNC(=O)c1ccccc1F)Cc1ccsc1`, for which the “% Inhibition” value is -2% and the Z score is 0.27.

In the case of `C[C@H](Nc1cc(-c2ccccc2F)nc2ccnn12)c1nnn[nH]1`, the “% Inhibition” value was -1% and the Z score stood at 0.09.

As to `Cc1ccc(NC(=O)c2ccc(S(=O)(=O)c3ccc(Cl)cc3)o2)cc1C`, the “% Inhibition” value was -6% and the Z score is 0.77.

`CCN=C(NCCOC)NCCc1nc(CC)c(C)s1`: the “% Inhibition” value was -10% and the Z score turned out to be 0.97.

As to `CC(C)CN1C(=O)CC[C@@H]2CN(C(=O)c3ccccc3Cl)CC[C@@H]21`, the “% Inhibition” value is reported as -6% and the Z score is 1.17.

In the case of `O=C(c1c[nH]c2ccccc12)N1CCCC1`, the “% Inhibition” value is given as 3% and the Z score is -0.5.

`Cn1ccc(N2CCCC(NC(=O)N3CCOC(c4cccc(O)c4)C3)C2=O)n1` (stereo not drawn): the “% Inhibition” value is recorded as -8% and the Z score was found to be 1.41.

With `CC(C)NC(=O)CCCc1nnc(C(=O)Nc2cccc(Cl)c2)s1`, the “% Inhibition” value was -5% and the Z score is 0.67.

Consider `CCCN(C/C=C/c1ccccc1)C(=O)[C@@H]1CCC[C@H](N)C1`, for which the “% Inhibition” value is given as -15% and the Z score amounted to 2.51.

As to `Cn1c(-c2cc3n(n2)CCCN(C(=O)c2ncn[nH]2)C3)nc2ccccc21`, the “% Inhibition” value was found to be 5% and the Z score is -0.64.

With `COc1ccc(-c2nc3cc(C)ccc3cc2CN2CCN(C)C(=O)[C@@H]2C)cc1`, the “% Inhibition” value is reported as -11% and the Z score is on record as 1.89.

On to `Cn1cc(-c2nc(C3CCCC3)cs2)cn1`, for which the “% Inhibition” value was 0% and the Z score was -0.02.

Turning to `CCC1(c2noc(C3CCOCC3)n2)CCCC1`, the “% Inhibition” value is on record as -3% and the Z score is listed as 0.39.

Turning to `Cc1cnc(NC(=O)CC2(Cn3cnc4ccccc4c3=O)CCCCC2)s1`, the “% Inhibition” value was found to be 28% and the Z score was -3.18.

Regarding `CC(C)N1CC[C@H](CNC(=O)NCC2(c3ccccc3)CC2)C1`, the “% Inhibition” value was -8% and the Z score turned out to be 1.
